Here are results for 110 molecules from PubChem BioAssay AID488969 (Vanderbilt High Throughput Screening Facility, 2010).

The full ranking holds about 110,000 compounds; the median of “z-score” is about -0.1, and the highest 2% start at about 2. The list shows a part of the results. Activity calls are given as the source filed them.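 Rule for the calls: active = z-score in the third read window above 3 or below -3; inactive = the rest.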 Residues, ends and D or L forms follow the SMILES beside them. *: point of attachment. Boc = CC(C)(C)OC(=O)*

In the assay the target is Metabotropic glutamate receptor 8 (Rattus norvegicus) (UniProt P70579). Kind of assay: mGluR8 Gi/Go-coupled signaling modulation – cell-based, rat, thallium flux, HTS, primary screen (AID 488969). The settings on record: HEK293 rat mGluR8, GIRK (G protein-gated inwardly rectifying potassium channel) thallium flux, FluoZin2; at 10 µM; stronger effect = higher value; submaximal glutamate (EC20) added with thallium.
UniProt P70579, sequence (P70579 whole entry, looked up): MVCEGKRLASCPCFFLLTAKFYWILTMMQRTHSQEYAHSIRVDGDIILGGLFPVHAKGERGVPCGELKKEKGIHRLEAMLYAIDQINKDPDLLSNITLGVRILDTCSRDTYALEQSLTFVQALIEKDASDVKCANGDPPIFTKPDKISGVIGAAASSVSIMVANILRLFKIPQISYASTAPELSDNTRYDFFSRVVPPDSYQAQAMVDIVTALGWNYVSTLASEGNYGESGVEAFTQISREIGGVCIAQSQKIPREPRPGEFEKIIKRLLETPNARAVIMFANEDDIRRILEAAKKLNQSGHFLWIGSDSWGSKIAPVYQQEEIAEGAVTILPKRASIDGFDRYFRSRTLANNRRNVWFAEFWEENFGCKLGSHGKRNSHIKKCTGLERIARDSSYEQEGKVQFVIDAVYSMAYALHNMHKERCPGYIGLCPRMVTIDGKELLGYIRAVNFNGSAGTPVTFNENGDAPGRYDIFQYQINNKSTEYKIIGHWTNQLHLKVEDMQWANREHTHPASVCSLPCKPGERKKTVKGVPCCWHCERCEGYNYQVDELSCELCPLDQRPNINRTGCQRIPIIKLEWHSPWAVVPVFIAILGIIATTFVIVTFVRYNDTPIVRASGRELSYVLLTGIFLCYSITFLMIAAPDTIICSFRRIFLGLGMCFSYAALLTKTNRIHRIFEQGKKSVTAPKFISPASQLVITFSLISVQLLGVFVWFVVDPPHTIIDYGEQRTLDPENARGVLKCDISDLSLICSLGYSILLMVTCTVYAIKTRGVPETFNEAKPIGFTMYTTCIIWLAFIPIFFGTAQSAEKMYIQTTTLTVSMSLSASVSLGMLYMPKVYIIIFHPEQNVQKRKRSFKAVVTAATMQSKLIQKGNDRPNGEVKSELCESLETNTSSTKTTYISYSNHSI
The molecule `CCN(CC)S(=O)(=O)c1csc(C(=O)NCc2ccccc2)c1` yielded a z-score of 2.45.
`CC(NC(=O)c1ccc(F)cc1)c1ccc2c(c1)CCCC2` (stereo not given) had a z-score of -0.223.
`CC(C)(C)c1[nH]nc2c1C(c1ccoc1)C(C#N)=C(N)O2` (stereo not given) showed a z-score of -0.293.
Consider `Cc1cc(C)c2oc(C(=O)Nc3ccc(S(=O)(=O)N4CCC(C)CC4)cc3)cc(=O)c2c1`, for which the z-score is -0.0673.
In turn, `Cc1cccc(NC(=O)c2ccc(COc3cccc4ccccc34)o2)n1` displayed a z-score of -0.36.
The same measure for `CC(NC(=O)C(NC(=O)C1CCCN1C(=O)OC(C)(C)C)C(C)C)C(N)=O` (stereo not drawn) (Boc-Pro-Val-Ala-NH2; configuration not given here): -0.296; for `CCc1ccc(C2=NNC(=Nc3cccc(S(=O)(=O)N(C)C)c3)SC2)cc1`: -0.497; for `Cc1cccc(N=CC=C2OC(C)(C)C(C)(C)O2)c1`: 0.595.
In turn, `COCCN1CCn2c(nc3cc(NC(=O)c4cccs4)ccc32)C1` gave a z-score of -0.0383.
For the molecule `Cc1c([N+](=O)[O-])c(C(=O)Nc2ccc3c(c2)OCCO3)nn1C`, the z-score was -0.0669.
In turn, `Cn1cccc1Cc1nnc(SCC(=O)N2CCN(c3ccccc3)CC2)n1-c1ccc(F)cc1` registered a z-score of -0.223.
`COc1ccc(-c2noc(-c3ccc(Cl)cc3[N+](=O)[O-])n2)cc1OC` returned a z-score of -0.0457.
`CCn1c(C2CC(=O)N(Cc3ccccc3)C2)nc2ccccc21` (stereo not given): the z-score was -0.349.
`Nc1nc2ccc(N3CCOCC3)cc2s1` gave a z-score of 0.397.
Turning to `Cc1ccc(NC(=O)N(Cc2nc3ccccc3c(=O)[nH]2)Cc2cccs2)cc1`, the z-score is -0.425.
Turning to `Cc1ccc(C)c(S(=O)(=O)N2CCN(CC(=O)N3CCc4ccccc4C3)CC2)c1`, the z-score is -0.11.
For `COc1ccc(Cl)cc1N(CC(=O)NC(C(C)C)C(C)C)S(C)(=O)=O`, the z-score is -0.0442.
In the case of `CC(=O)c1sc(NC(=O)c2c(F)cccc2F)nc1C` it was -0.0333; in that of `Cc1ccc(-c2csc(N/N=C/c3ccco3)n2)c(C)c1`, -0.0506; in that of `O=C(C1=C(O)C(=O)N(CC2CCCO2)C1c1cccnc1)c1ccco1` (stereo not given), 0.0361.
In turn, `N#CC1=C2SCN(Cc3ccco3)CN2C(=O)CC1c1ccc(Cl)cc1` (stereo not given) yielded a z-score of -0.156.
With `CCc1nnc(NC(=O)C2CCCN2S(=O)(=O)c2ccccc2)s1` (stereo not given), the z-score is 0.215.
Molecule `O=C(O)C1C2C=CC3(CN(C4CCCC4)C(=O)C13)O2` (stereo not given) came in with a z-score of 2.75.
The same measure for `CN(C#N)c1nc(Cl)nc(Nc2cccc(Cl)c2)n1`: -0.113; for `CCOC(=O)c1cc(-c2ccc(C)cc2)nc2nc(SC)[nH]c(=O)c12`: -0.0101; for `O=C(c1ccco1)N1CCN(C(=O)C2CCN(S(=O)(=O)c3cccc4nsnc34)CC2)CC1`: 0.0379.
Regarding `O=C(CSc1nnc(CCc2ccccc2)n1-c1ccc(Cl)cc1)NCc1ccccc1`, the z-score was -0.443.
With `COc1ccc(OCC(=O)OC(C)CN2CCOCC2)cc1` (stereo not given), the z-score was 0.0532.
In turn, `CSCc1nnc(NC(=O)c2ccc(S(=O)(=O)N(CC(C)C)CC(C)C)cc2)o1` registered a z-score of 0.161.
Turning to `O=C(/C=N/O)Nc1ccc(F)cc1`, the z-score was -0.147.
`COCCn1c(=NC(=O)c2ccccc2[N+](=O)[O-])sc2cc(S(C)(=O)=O)ccc21` registered a z-score of 0.721.
Take `O=C(CSc1nnc(Cc2ccccc2)o1)N1CCc2ccccc21`: the z-score is -0.0762.
For the molecule `O=S(=O)(Nc1nccs1)c1ccc(Nc2nnc(-c3ccccc3)c3ccccc23)cc1`, the z-score is -0.249.
`COc1ccc(C(=O)NNC(=S)NC2CCCCC2)cc1OC` registered a z-score of 0.0284.
The molecule `COc1ccc(-c2cc(C(=O)OCC(=O)N3CCCC3)c3ccccc3n2)cc1` showed a z-score of -0.231.
Consider `CCn1cc(C2N3CC4(C)CN2CC(C)(C3)C4=O)c2ccccc21` (stereo not given), for which the z-score is -0.609.
`N#CC1(C#N)COC23CCCCC2C1(C#N)C(=N)O3` (stereo not given) had a z-score of 1.44.
For `CCCC(=O)N1CC2(C)CN(C(=O)CCC)CC(CCC)(C1)C2=O`, the z-score came out at 0.692.
On to `CC1=CC(C)(C(Cl)Cl)C(C)=CC1=O` (stereo not given), for which the z-score was -0.108.
The same measure for `CC(C)NC(=O)/C(C#N)=C/c1cccc(NC(=O)c2ccccc2Cl)c1`: -0.586.
Molecule `CCOC(=O)c1cccc(NC(=O)CSc2nc3cccnc3n2C)c1` yielded a z-score of -1.56.
In the case of `CCc1nc(SCC(=O)c2cccc([N+](=O)[O-])c2)n[nH]1` it was -0.282; in that of `c1ccc(N2N=C(c3cccs3)CC2c2ccco2)cc1` (stereo not given), -0.731.
In turn, `O=[N+]([O-])c1ccc2c(c1)C=C1CCCCC1(N1CCCC1)O2` (stereo not given) displayed a z-score of -0.299.
On to `COc1ccccc1NC(=O)c1ccc(NC(=O)COC(=O)C(C)C)cc1`, for which the z-score turned out to be 0.278.
The molecule `Cc1nn(-c2ccc(Cl)c(Cl)c2)c(=O)c2ccccc12` displayed a z-score of -0.111.
In the case of `CC(=O)[C@H]1[C@H](c2cccc(Cl)c2)C(C#N)(C#N)[C@@H]2c3ccccc3C=CN21` it was -0.272; in that of `CCNc1cc2oc(=O)c(CN3CCOCC3)c(C)c2cc1C`, -0.829; in that of `O=C1CC(N2CCN(c3ccc(Cl)c(Cl)c3)CC2)C(=O)N1` (stereo not given), -0.2.
The same measure for `CC(NC(=O)COC(=O)/C(=C/c1cccs1)c1cccs1)c1ccccc1` (stereo not given): -0.487; for `CCOc1ccc(NC(=O)CC2C(=O)N(C)C(=S)N2CCCc2ccccc2)cc1` (stereo not given): 0.36; for `COc1ccc(N2CC(C(=O)Nc3ccc(F)cc3F)CC2=O)cc1` (stereo not given): -0.323.
Turning to `CC1CCCCN1Cc1nc2ccccc2c(=O)[nH]1` (stereo not given), the z-score was -2.72e-06.
In turn, `O=C(Cn1c(S(=O)(=O)Cc2ccccc2)nc2ccccc21)N1CCCCC1` returned a z-score of 0.0305.
As for `Cc1cc(NC(=O)c2ccc(S(=O)(=O)N(C)C)cc2)n(-c2ccccn2)n1`, the z-score is -0.307.
The same measure for `Cc1ccc(Cn2c(Sc3nnc(C)s3)nc3c2c(=O)[nH]c(=O)n3C)cc1`: 0.0732.
`CCn1c2ccccc2c2cc(N)ccc21` registered a z-score of -0.216.
`COc1ccccc1NC(=O)N1CCN(c2ccccc2F)CC1` yielded a z-score of -0.567.
The molecule `CCOC(=O)N1CCc2c(sc3nc(SC(C)C)n(N)c(=O)c23)C1` registered a z-score of -0.443.
In the case of `COC(=O)c1c(NC(=S)Nc2ccc(F)cc2[N+](=O)[O-])sc2c1CCCCC2` it was 1.71; in that of `COc1cc(C2NCC(c3ccc(Cl)cc3Cl)c3c2[nH]c2ccccc32)cc(OC)c1OC` (stereo not given), -0.245.
Take `CC(N)c1ccc(Cl)cc1Cl` (stereo not given): the z-score was -0.44.
`Cc1ccc2nc(SCc3nnc(-c4ccccc4Br)o3)[nH]c2c1` returned a z-score of -0.71.
With `COC(=O)c1cc(=O)n(Cc2ccco2)c(=Nc2ccc(F)c(Cl)c2)s1`, the z-score was -0.152.
In the case of `CSc1ccccc1C(=O)Nc1nccs1`, the z-score was -0.134.
The same measure for `NC(=O)c1ccc(C2SCC(=O)N2Cc2ccccc2)cc1` (stereo not given): 0.316.
In the case of `S=C1NCCc2ccccc2C1c1ccccc1Cl` (stereo not given), the z-score amounted to 0.368.
For the molecule `CCOC(=O)c1ccc(N2C(=O)c3n[nH]c(-c4ccco4)c3C2c2ccc([N+](=O)[O-])cc2)cc1` (stereo not given), the z-score is -0.206.
The molecule `N#Cc1ccccc1CSc1nc(O)cc(=O)[nH]1` yielded a z-score of 0.066.
The same measure for `Cc1ccc(N=Cc2ccc(N(C)C)cc2)cc1`: 0.0838; for `N#C/C(=C(/O)CN1CCN(c2ccccc2F)CC1)c1nc(-c2ccc(Cl)cc2)cs1`: -0.261; for `Cc1ccc(C(=O)C2=C(O)C(=O)N(CCN3CCOCC3)C2c2ccccn2)o1` (stereo not given): 0.226.
Molecule `CCn1cc(CNC(=O)c2cccc([N+](=O)[O-])c2)cn1` returned a z-score of -0.0089.
Molecule `CCOP(=O)(OCC)c1nc(-c2ccc(C)cc2)oc1N1CCOCC1` displayed a z-score of 0.0269.
For `Cc1ccccc1CSc1nnc(C)n1N`, the z-score amounted to 0.346.
`CC(C)(C)CC(C)(C)Nc1c(-c2ccc(O)cc2)nc2cnccn12` showed a z-score of 0.017.
The same measure for `COc1ccc(NC(=O)CCCC(=O)OCC(F)(F)C(F)F)cc1`: 0.139; for `CC(=O)NC1(C(F)(F)F)N=C2SCCN2C1=O` (stereo not given): 0.258.
For `CS/C(=N\S(=O)(=O)c1cccs1)Nc1ccc(F)c(Cl)c1`, the z-score turned out to be 1.29.
Turning to `Cc1ccnc(NC(=S)NC(=O)c2cccs2)c1`, the z-score was active: 7.29.
`CCOc1ccc(C2c3c(oc4cc(C)c(C)cc4c3=O)C(=O)N2CCCN2CCOCC2)cc1` (stereo not given) gave a z-score of 0.778.
As for `CCSc1ccccc1C(=O)Nc1nncs1`, the z-score is -0.23.
As for `CCCOC(=O)c1ccc(S(N)(=O)=O)o1`, the z-score was -0.222.
As for `CCn1c(SCC(=O)Nc2cccc(F)c2)nnc1-c1cc2cc(Br)ccc2o1`, the z-score is -0.256.
In the case of `CCOC(=O)c1sc(NC(=O)CCCCCN2C(=O)c3cccc4cccc(c34)C2=O)nc1C` it was -0.127; in that of `CSc1n[nH]c(NC(C)=O)n1`, 0.059; in that of `COc1ccc(C2=C(SC)CC2=NC(C)(C)C)cc1`, -1.36.
As to `CC1=NN(c2ccc(C)c(C)c2)C(=O)C1C(c1cccc(O)c1)C1C(=O)N(c2ccc(C)c(C)c2)N=C1C` (stereo not given), the z-score was 0.0893.
The same measure for `CC(C)(C)NC(=O)C(c1ccccc1)N(Cc1cccs1)C(=O)c1csnn1` (stereo not given): 0.292.
`Cc1ccc2nsnc2c1S(=O)(=O)N1CCN(CCc2ccccc2)CC1` displayed a z-score of 0.537.
`CS(=O)(=O)N1CCCC(C(=O)NCc2ccco2)C1` (stereo not given) registered a z-score of -0.219.
For the molecule `COc1ccc(Cl)cc1N1Cc2ccccc2C1`, the z-score was -0.134.
The molecule `COc1ccc(C(=O)N[C@H](C(=O)NCC2CCCCC2)C(C)C)cc1` showed a z-score of -0.0328.
As to `CC/C(=N\O)c1ccc(OC)c(OC)c1`, the z-score was -0.0836.
For `CCN1CCN(CC(=O)Nc2cccc(C)c2)C(=O)C1=O`, the z-score is 0.32.
The same measure for `CC(=O)N1N=C(c2ccc3nccnc3c2)CC1c1ccccc1` (stereo not given): -0.161; for `CC(=O)c1c(C)[nH]c(C(=O)NC2=NCCS2)c1C`: -0.158.
As to `CCN(CC)CCN1C(=O)C(O)=C(C(=O)c2ccc(C)o2)C1c1ccccn1` (stereo not given), the z-score is -0.0148.
The same measure for `Cn1cccc1/C=N/NC(=O)c1cccnc1`: 0.491; for `CNS(=O)(=O)c1ccc(N2CCCC2=O)c([N+](=O)[O-])c1`: -0.177.
`O=C(Nc1cccn2ncnc12)C(Cl)Cl` displayed a z-score of -0.39.
`COC(=O)c1c(NC(=O)CN2C(=O)NC(CCc3ccccc3)C2=O)sc2c1CCCCC2` (stereo not given): the z-score was -0.482.
`O=C(OCC1CCCN2CCCCC12)c1ccc2c(c1)OCO2` (stereo not given) yielded a z-score of 0.442.
For the molecule `Cc1ccc(NS(=O)(=O)c2cc(C(N)=O)ccc2C)cc1`, the z-score is 0.305.
The same measure for `CSc1ncc(Cl)c(C(=O)Nc2cccc3ccccc23)n1`: -0.314; for `C=CCSc1nnc(NC(=O)COc2ccc3ccccc3c2)s1`: -0.306.
In turn, `O=C(Nc1cccc(Cl)c1)N(CCN1CCOCC1)Cc1cccc(Cl)c1` yielded a z-score of -0.473.
On to `CCOc1ccc(OCc2cccc(C(=O)Nc3ccc(CN4CCCCC4)cc3)c2)cc1`, for which the z-score turned out to be 0.145.
In the case of `CC(=O)c1cccc(NC(=O)CSc2nnc(-c3cccnc3)o2)c1` it was 0.059.
`Cc1ccc(S(=O)(=O)c2c(C(=O)c3ccccc3)cnc3cc4c(cc23)OCCO4)cc1`: the z-score was 0.383.
